Experimental data reported in ChEMBL document CHEMBL3044822, “Carpropamid, a New Fungicide for Rice Blast Control” (1998).

test system: Pyricularia oryzae; assay: Fungicidal activity against Magnaporthe oryzae assessed as melanin synthesis inhibition

Compound | inhibition
CC(NC(=O)C1(C)C(C)(C)C1(Cl)Cl)c1ccc(Br)cc1 (centres undefined) | Active
CC[C@]1(C(=O)NC(C)c2ccc(Cl)cc2)[C@H](C)C1(Cl)Cl (mixture of isomers) | Active
C[C@@H](NC(=O)C1(C)C(C)(C)C1(Cl)Cl)c1ccc(Br)cc1 (stereo in doubt; 17(Rd)) | Active
C[C@@H](NC(=O)C1(C)C(C)(C)C1(Cl)Cl)c1ccc(Br)cc1 (stereo in doubt; 17(Rd+Rl)) | Active
C[C@@H](NC(=O)C1(C)C(C)(C)C1(Cl)Cl)c1ccc(Br)cc1 (stereo in doubt; 17(Rl)) | Active
C[C@H](NC(=O)C1(C)C(C)(C)C1(Cl)Cl)c1ccc(Br)cc1 (stereo in doubt; 17(Sd)) | inactive
C[C@H](NC(=O)C1(C)C(C)(C)C1(Cl)Cl)c1ccc(Br)cc1 (stereo in doubt; 17(Sd+Sl)) | inactive
C[C@H](NC(=O)C1(C)C(C)(C)C1(Cl)Cl)c1ccc(Br)cc1 (stereo in doubt; 17(Sl)) | inactive
CC[C@]1(C(=O)N[C@H](C)c2ccc(Cl)cc2)[C@H](C)C1(Cl)Cl [trans-Carpropamid] | Active

Activity calls are given as the source filed them. No cut-off for these calls is given here.
